# Reference: the supplement of paper PMC8728848
# The list shows a part of the results.
# B1: LYVE-1 (Homo sapiens), Q9Y5Y7 (protein)
# chain: MARCFSLVLLLTSIWTTRLLVQGSLRAEELSIQVSCRIMGITLVSKKANQQLNFTEAKEACRLLGLSLAGKDQVETALKASFETCSYGWVGDGFVVISRISPNPKCGKNGVGVLIWKVPVSRQFAAYCYNSSDTWTNSCIPEIITTKDPIFNTQTATQTTEFIVSDSTYSVASPYSTIPAPTTTPPAPASTSIPRRKKLICVTEVFMETSTMSTETEPFVENKAAFKNEAAGDPEVKFNWYVDGVEVHNAKPREEQYNSTYRVVSLVTVLHQDWLNGKEYKCKVSNKALPAPIEKTISKAKGQPREPQVYTLPPSRDELTKNQVSLTCLVKGFYPSDIAVEWESNGQPENNYKTTPPVLDSDGSFFLYSKLTVDKSRWQQGNVFSCSVMHEALHNHYTQRSLSLSPGK
# Assays:
# Assay in all cases: glycan array binding signal (z-score within array); higher = stronger binding
# Settings in all cases: glycan notation: IUPAC condensed, linker removed
# [1] = biological target: Fuc(a1-2)Gal
# In short: (§1)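 Arrays were curated from the Consortium for Functional Glycomics database, 3228 in total, and kept only where the protein sequence was available. Binding is expressed as a within-array Z-score. This score was averaged across arrays of the same protein sequence at different concentrations or buffers and across linkers, and negative values can be read as non-binding.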
# [2] = biological target: Fuc(a1-2)Gal(b1-3)GalNAc
# In short: as §1
# [3] = biological target: Fuc(a1-2)Gal(b1-3)GalNAc(b1-3)Gal
# In short: as §1
# [4] = biological target: Fuc(a1-2)Gal(b1-3)GalNAc(b1-3)Gal(a1-4)Gal(b1-4)Glc
# In short: as §1
# [5] = biological target: Fuc(a1-2)Gal(b1-3)GalNAc(b1-4)[Neu5Ac(a2-3)]Gal(b1-4)Glc
# In short: as §1
# [6] = biological target: Fuc(a1-2)Gal(b1-3)GlcNAc
# In short: as §1
# [7] = biological target: Fuc(a1-2)Gal(b1-3)GlcNAc(b1-3)Gal(b1-4)Glc
# In short: as §1
# [8] = biological target: Fuc(a1-2)Gal(b1-3)[Fuc(a1-4)]GlcNAc
# In short: as §1
# [9] = biological target: Fuc(a1-2)Gal(b1-4)Glc
# In short: as §1
# [10] = biological target: Fuc(a1-2)Gal(b1-4)Glc6S
# In short: as §1
# [11] = biological target: Fuc(a1-2)Gal(b1-4)GlcNAc
# In short: as §1
# [12] = biological target: Fuc(a1-2)Gal(b1-4)GlcNAc(b1-3)Gal(b1-4)GlcNAc
# In short: as §1
# [13] = biological target: Fuc(a1-2)Gal(b1-4)GlcNAc(b1-3)Gal(b1-4)GlcNAc(b1-3)Gal(b1-4)GlcNAc
# In short: as §1
# [14] = biological target: Fuc(a1-2)Gal(b1-4)GlcNAc6S
# In short: as §1
# [15] = biological target: Fuc(a1-2)Gal(b1-4)[Fuc(a1-3)]GlcNAc
# In short: as §1
# [16] = biological target: Fuc(a1-2)Gal(b1-4)[Fuc(a1-3)]GlcNAc(b1-3)Gal(b1-4)[Fuc(a1-3)]GlcNAc
# In short: as §1
# [17] = biological target: Fuc(a1-2)Gal(b1-4)[Fuc(a1-3)]GlcNAc(b1-3)Gal(b1-4)[Fuc(a1-3)]GlcNAc(b1-3)Gal(b1-4)[Fuc(a1-3)]GlcNAc
# In short: as §1
# [18] = biological target: Fuc(a1-2)Gal6S(b1-4)Glc
# In short: as §1
# [19] = biological target: Fuc(a1-2)Gal6S(b1-4)Glc6S
# In short: as §1
# [20] = biological target: Fuc(a1-2)Gal6S(b1-4)GlcNAc
# In short: as §1
# [21] = biological target: Fuc(a1-2)[Gal(a1-3)]Gal
# In short: as §1
# [22] = biological target: Fuc(a1-2)[Gal(a1-3)]Gal(b1-3)GlcNAc
# In short: as §1
# [23] = biological target: Fuc(a1-2)[Gal(a1-3)]Gal(b1-4)Glc
# In short: as §1
# [24] = biological target: Fuc(a1-2)[Gal(a1-3)]Gal(b1-4)GlcNAc
# In short: as §1
# [25] = biological target: Fuc(a1-2)[Gal(a1-3)]Gal(b1-4)[Fuc(a1-3)]GlcNAc
# In short: as §1
# [26] = biological target: Fuc(a1-2)[Gal(a1-4)]Gal(b1-4)GlcNAc
# In short: as §1
# [27] = biological target: Fuc(a1-2)[GalNAc(a1-3)]Gal
# In short: as §1
# [28] = biological target: Fuc(a1-2)[GalNAc(a1-3)]Gal(b1-3)GlcNAc
# In short: as §1
# [29] = biological target: Fuc(a1-2)[GalNAc(a1-3)]Gal(b1-4)Glc
# In short: as §1
# [30] = biological target: Fuc(a1-2)[GalNAc(a1-3)]Gal(b1-4)GlcNAc
# In short: as §1
# [31] = biological target: Fuc(a1-2)[GalNAc(a1-3)]Gal(b1-4)[Fuc(a1-3)]GlcNAc
# In short: as §1
# [32] = biological target: Fuc(a1-2)[GalNAc(a1-4)]Gal(b1-4)GlcNAc
# In short: as §1
# [33] = biological target: Fuc(a1-2)[GalNAc(b1-3)]Gal
# In short: as §1
# [34] = biological target: Fuc(a1-3)GlcNAc
# In short: as §1
# [35] = biological target: Fuc(a1-3)[Gal(b1-4)]Glc6S
# In short: as §1
# [36] = biological target: Fuc(a1-3)[Gal(b1-4)]GlcNAc
# In short: as §1
# [37] = biological target: Fuc(a1-3)[Gal(b1-4)]GlcNAc(b1-2)Man(a1-3)[Fuc(a1-3)[Gal(b1-4)]GlcNAc(b1-2)Man(a1-6)]Man(b1-4)GlcNAc(b1-4)GlcNAc
# In short: as §1
# [38] = biological target: Fuc(a1-3)[Gal(b1-4)]GlcNAc(b1-2)Man(a1-6)[Gal(b1-4)GlcNAc(b1-2)Man(a1-3)]Man(b1-4)GlcNAc(b1-4)GlcNAc
# In short: as §1
# [39] = biological target: Fuc(a1-3)[Gal(b1-4)]GlcNAc(b1-3)Gal(b1-3)[Fuc(a1-4)]GlcNAc
# In short: as §1
# [40] = biological target: Fuc(a1-3)[Gal(b1-4)]GlcNAc(b1-4)Gal(b1-4)[Fuc(a1-3)]GlcNAc
# In short: as §1
# [41] = biological target: Fuc(a1-3)[Gal(b1-4)]GlcNAc(b1-4)Gal(b1-4)[Fuc(a1-3)]GlcNAc(b1-4)Gal(b1-4)[Fuc(a1-3)]GlcNAc
# In short: as §1
# [42] = biological target: Fuc(a1-3)[Gal(b1-4)]GlcNAc6S
# In short: as §1
# [43] = biological target: Fuc(a1-3)[Gal3S(b1-4)]Glc6S
# In short: as §1
# [44] = biological target: Fuc(a1-3)[Gal3S(b1-4)]GlcNAc
# In short: as §1
# [45] = biological target: Fuc(a1-3)[Gal3S(b1-4)]GlcNAc6S
# In short: as §1
# [46] = biological target: Fuc(a1-3)[GalNAc(b1-4)]GlcNAc
# In short: as §1
# [47] = biological target: Fuc(a1-4)GlcNAc
# In short: as §1
# [48] = biological target: Fuc(b1-3)GlcNAc
# In short: as §1
# [49] = biological target: Gal(a1-2)Gal
# In short: as §1
# [50] = biological target: Gal(a1-3)Gal
# In short: as §1
# [51] = biological target: Gal(a1-3)Gal(b1-3)GlcNAc
# In short: as §1
# [52] = biological target: Gal(a1-3)Gal(b1-4)Glc
# In short: as §1
# [53] = biological target: Gal(a1-3)Gal(b1-4)GlcNAc
# In short: as §1
# [54] = biological target: Gal(a1-3)Gal(b1-4)[Fuc(a1-3)]GlcNAc
# In short: as §1
# [55] = biological target: Gal(a1-3)GalNAc
# In short: as §1
# [56] = biological target: Gal(a1-3)[Gal(a1-4)]Gal(b1-4)GlcNAc
# In short: as §1
# [57] = biological target: Gal(a1-4)Gal(b1-4)Glc
# In short: as §1
# [58] = biological target: Gal(a1-4)Gal(b1-4)GlcNAc
# In short: as §1
# [59] = biological target: Gal(a1-4)GlcNAc
# In short: as §1
# [60] = biological target: Gal(a1-6)Glc
# In short: as §1
binder,measurement,setting,value
B1,glycan array binding signal (z-score),[1],-0.222
same,glycan array binding signal (z-score),[2],-0.468
same,glycan array binding signal (z-score),[3],0.63
same,glycan array binding signal (z-score),[4],-0.449
same,glycan array binding signal (z-score),[5],-0.605
same,glycan array binding signal (z-score),[6],-0.053
same,glycan array binding signal (z-score),[7],-0.024
same,glycan array binding signal (z-score),[8],-0.412
same,glycan array binding signal (z-score),[9],0.176
same,glycan array binding signal (z-score),[10],-0.042
same,glycan array binding signal (z-score),[11],-0.346
same,glycan array binding signal (z-score),[12],0.297
same,glycan array binding signal (z-score),[13],0.267
same,glycan array binding signal (z-score),[14],-0.475
same,glycan array binding signal (z-score),[15],0.451
same,glycan array binding signal (z-score),[16],0.235
same,glycan array binding signal (z-score),[17],0.299
same,glycan array binding signal (z-score),[18],-0.807
same,glycan array binding signal (z-score),[19],0.656
same,glycan array binding signal (z-score),[20],-0.046
same,glycan array binding signal (z-score),[21],0.242
same,glycan array binding signal (z-score),[22],-0.277
same,glycan array binding signal (z-score),[23],-1.05
same,glycan array binding signal (z-score),[24],-0.177
same,glycan array binding signal (z-score),[25],-0.426
same,glycan array binding signal (z-score),[26],-0.596
same,glycan array binding signal (z-score),[27],0.107
same,glycan array binding signal (z-score),[28],-0.138
same,glycan array binding signal (z-score),[29],-0.767
same,glycan array binding signal (z-score),[30],0.026
same,glycan array binding signal (z-score),[31],0.095
same,glycan array binding signal (z-score),[32],-0.022
same,glycan array binding signal (z-score),[33],-0.162
same,glycan array binding signal (z-score),[34],-0.378
same,glycan array binding signal (z-score),[35],0.049
same,glycan array binding signal (z-score),[36],-0.243
same,glycan array binding signal (z-score),[37],-0.11
same,glycan array binding signal (z-score),[38],0.1
same,glycan array binding signal (z-score),[39],-0.317
same,glycan array binding signal (z-score),[40],0.813
same,glycan array binding signal (z-score),[41],-0.652
same,glycan array binding signal (z-score),[42],-0.346
same,glycan array binding signal (z-score),[43],-0.066
same,glycan array binding signal (z-score),[44],-0.262
same,glycan array binding signal (z-score),[45],-0.586
same,glycan array binding signal (z-score),[46],-0.334
same,glycan array binding signal (z-score),[47],0.095
same,glycan array binding signal (z-score),[48],-0.121
same,glycan array binding signal (z-score),[49],-0.243
same,glycan array binding signal (z-score),[50],0.068
same,glycan array binding signal (z-score),[51],0.144
same,glycan array binding signal (z-score),[52],0.282
same,glycan array binding signal (z-score),[53],-0.02
same,glycan array binding signal (z-score),[54],0.523
same,glycan array binding signal (z-score),[55],-0.27
same,glycan array binding signal (z-score),[56],0.241
same,glycan array binding signal (z-score),[57],-0.09
same,glycan array binding signal (z-score),[58],-0.596
same,glycan array binding signal (z-score),[59],-0.269
same,glycan array binding signal (z-score),[60],-0.094
